Source: PubChem BioAssay (NCATS)
Where “and” joins values, the source holds several entries; their conditions need not be identical. Equal entries are not always repeated. Inconclusive means that the source gave no clear call. Such entries were picked first, then a sample of the others. For some of these results: Where the call is inconclusive, the potency comes from a doubtful curve fit. Calls of active or inactive are those of the source. Unless noted, calls come from the whole dose curve; as a rule, active = well fitted curve in the direction sought with a large enough effect; inconclusive = small, poorly fitted or top-dose-only effect, or another doubt; inactive = no such curve, though single readings can be large; an effect the other way counts as inactive or inconclusive.

Tests used:
[1] = target: Aldehyde dehydrogenase, mitochondrial (Homo sapiens) (UniProt P05091); test: qHTS for Inhibitors of the Aldehyde Dehydrogenase Family (ALDH2) Confirmatory screens (AID 2061303; active = well fitted inhibition curve with a large enough effect; inconclusive = small, poorly fitted or top-dose-only effect; inactive = no such curve, though single readings can be large or run the other way; title and protocol of this record describe different tests; note: nearly all actives have a fitted effect of over 45% in size); details: ALDH inhibition qHTS; activity change, negative = inhibition: at 45.4 µM (top of the series)
[2] = qHTS for Inhibitors of the Aldehyde Dehydrogenase Family (ALDH1A2, ALDH1A3, ALDH2, ALDH3A1) (AID 2061307); details: ALDH inhibition qHTS; activity change, negative = inhibition: at 50.3 µM (top of the series) unless noted; note: test system not described further here; nearly all actives have a fitted effect of over 50% in size
[3] = target: Retinaldehyde dehydrogenase 3 (Homo sapiens) (UniProt P47895); test: qHTS for Inhibitors of the Aldehyde Dehydrogenase Family (ALDH1A3) Primary screen (AID 2061315); details: ALDH inhibition qHTS; activity change, negative = inhibition: at 56 µM (top of the series) unless noted
[4] = target: Aldehyde dehydrogenase 1A1 (Homo sapiens) (UniProt P00352); test: qHTS for Inhibitors of the Aldehyde Dehydrogenase Family (ALDH1A1) Confirmatory screens (AID 2061316); details: activity change, negative = inhibition: at 47.3 µM (top of the series); note: nearly all actives have a fitted effect of over 65% in size
[5] = BET inhibitor-based combinations targeting novel dependencies in MECOM-rearranged (r) AML: OCI-AML3 cell line (AID 2202232); details: CellTiter-Glo luminescence, 48 h; Potency: OCI-AML3 viability; series mostly up to 46 µM; note: nearly all actives have a fitted effect of over 35% in size
In short: (§1)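 A 48 hr incubation preceded viability reading by CellTiter-Glo, with 15 min room-temperature development. Dose series had 11 points; normalization used DMSO and empty wells; AUC was computed and mean-centered per line as Z-AUC.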

[6] = BET inhibitor-based combinations targeting novel dependencies in MECOM-rearranged (r) AML: MV-4-11 cell line (AID 2202233); details: MV-4-11 AML viability, CellTiter-Glo luminescence, 48 h; series mostly up to 46 µM; note: nearly all actives have a fitted effect of over 45% in size
In short: (§2)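 Each compound is tested in an 11-point concentration series against 500 seeded cells/well for 48 hr. The luminescent viability signal is normalized to DMSO and blank wells, then reduced to AUC and a cell-line-centred Z-AUC.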

[7] = BET inhibitor-based combinations targeting novel dependencies in MECOM-rearranged (r) AML: HNT-34 cell line (AID 2202234); note: nearly all actives have a fitted effect of over 35% in size
In short: as §2

[8] = BET inhibitor-based combinations targeting novel dependencies in MECOM-rearranged (r) AML: AML-191 cell line (AID 2202236; note: nearly all actives have a fitted effect of over 35% in size)
In short: as §1

[9] = target: Retinal dehydrogenase 2 (Homo sapiens) (UniProt O94788); test: qHTS for Inhibitors of the Aldehyde Dehydrogenase Family (ALDH1A2) Confirmation screens (AID 2061314); details: activity, negative = inhibition: at 45.9 µM (top of the series) unless noted; note: nearly all actives have a fitted effect of over 65% in size
Potency is the fitted concentration of half-maximal effect; tags give direction and shape of the fitted curve.

O=[N+]([O-])c1ccccc1S(=O)(=O)Nc1cccc2cccnc12
Potency [1]: inconclusive: 0.891 µM [inhibitor, full curve, poor fit] | Potency [2]: inconclusive: 7.98 µM [inhibitor, partial curve, poor fit] | Potency [3]: inconclusive: 14.1 µM [inhibitor, partial curve] | Potency [4]: inconclusive: 12.7 µM [inhibitor, partial curve]

CC(=O)c1c(C)cc2cccc(O)c2c1O[C@@H]1O[C@H](CO)[C@@H](O)[C@H](O)[C@H]1O
Potency [1]: inconclusive: 6.97 µM [inhibitor, partial curve] | Potency [2]: inconclusive: 0.282 µM [inhibitor, full curve, poor fit] | Potency [3]: inconclusive: 11.2 µM [inhibitor, partial curve] | Potency [4]: inconclusive: 3.92 µM [inhibitor, partial curve, poor fit]

O=C(O)c1ccc(O)c2ncc(NC3CCNC3)cc12 (centres undefined)
Potency [1]: inconclusive: 15.9 µM [inhibitor, partial curve] | Potency [2]: inconclusive: 1.12 µM [inhibitor, full curve] | Potency [4]: inactive

CN(C)c1cccc(-c2cnc(N3CCC(C(N)=O)CC3)nc2)c1
Potency [1]: inconclusive: 20.1 µM [inhibitor, partial curve] | Potency [2]: inconclusive: 11.3 µM [inhibitor, partial curve] | Potency [3]: inconclusive: 39.8 µM [inhibitor, partial curve, poor fit] | Potency [4]: active: 11.3 µM

CC(C)CCN(C)Cc1ccc(-c2ccccc2)cc1
Potency [1]: inconclusive: 15.8 µM [inhibitor, partial curve] | Potency [2]: active: 25.1 µM | Potency [4]: inconclusive: 31.6 µM [inhibitor, partial curve]

O=C(O)c1cccc(-c2noc(-c3ccccc3F)n2)c1
Potency [1]: inactive | Potency [2]: active: 0.302 µM | Potency [3]: active: 316 nM and inconclusive: 112 nM [inhibitor, full curve, poor fit] and inconclusive: 355 nM [inhibitor, full curve, poor fit] | Potency [4]: inconclusive: 22.5 µM [inhibitor, partial curve, poor fit] | Potency [5]: inconclusive: 18.6 µM [inhibitor, partial curve, poor fit] | Potency [6]: inconclusive: 13.2 µM [inhibitor, partial curve, poor fit] | Potency [7]: inconclusive: 18.6 µM [inhibitor, partial curve, poor fit] | Potency [8]: active: 20.9 µM

N#Cc1c(-c2csc(-c3no[n+]([O-])c3C#N)c2)no[n+]1[O-]
Potency [1]: active: 14.1 µM | Potency [2]: active: 6.34 µM | Potency [4]: active: 11.3 µM

Oc1cccc2cc(NCc3ccccc3F)cnc12
Potency [1]: inconclusive: 11.3 µM [inhibitor, partial curve] | Potency [2]: inconclusive: 7.08 µM [inhibitor, full curve, poor fit] | Potency [4]: inconclusive: 12.7 µM [inhibitor, partial curve]

CCOc1ccc(-c2nc(CSCC(=O)N3CCN(c4cccc(C(F)(F)F)c4)CC3)c(C)o2)cc1
Potency [1]: active: 8.91 µM | Potency [2]: active: 7.94 µM | Potency [9]: inconclusive: 14.1 µM [inhibitor, full curve] | Potency [4]: inconclusive: 9.13 µM [inhibitor, partial curve]

O=C(CN1C(=O)CC(c2ccco2)Sc2ccccc21)Nc1ccccc1F (centres undefined)
Potency [1]: inactive | Potency [2]: inconclusive: 28.3 µM [inhibitor, partial curve] | Potency [4]: active: 2.52 µM

Cc1ccc(-c2ccc(=O)n(CC(=O)NCCc3ccccc3)n2)cc1
Potency [1]: inconclusive: 3.98 µM [inhibitor, full curve] | Potency [2]: inconclusive: 14.1 µM [inhibitor, full curve] | Potency [4]: inconclusive: 7.94 µM [inhibitor, full curve]

COc1ccc(-c2ccc(=O)n(CC(=O)NCCc3ccccc3)n2)cc1
Potency [1]: inconclusive: 0.794 µM [inhibitor, full curve, poor fit] | Potency [2]: inconclusive: 10 µM [inhibitor, full curve] | Potency [9]: active: 15.8 µM | Potency [4]: inactive

Cc1ccc(NC(=O)c2cc(-c3ccc(Br)s3)nc3ccccc23)cc1F
Potency [1]: inactive | Potency [2]: inconclusive: 1.12 µM [inhibitor, full curve, poor fit] | Potency [4]: inactive
